Assay results reported in PubChem BioAssay AID686978 (National Center for Advancing Translational Sciences (NCATS), 2013).
Where “and” joins values, the source holds several entries; their conditions need not be identical. Identical values can stand only once. Screen size: about 420,000 compounds; about 64,000 (15%) were called active. This list was built around the results that the source calls inconclusive (neither active nor inactive); the mix of calls is not that of the screen. Calls come from the whole dose curve; as a rule, active = well fitted inhibition curve with a large enough effect; inconclusive = small, poorly fitted or top-dose-only effect; inactive = flat fitted curve, though single readings scatter. A potency beside an inconclusive call is a rough fit, not a confirmed value.

Test: qHTS for Inhibitors of human tyrosyl-DNA phosphodiesterase 1 (TDP1): qHTS in cells in absence of CPT; note: nearly all actives have a fitted effect of over 55% in size
Details: DT40 Tdp1-/- hTDP1 cells, no CPT, ATP luminescence, 48 h; activity change, negative = growth inhibition: at 46.2 µM (top of the series)
How it was run: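 Growth kinetics read by CellTiter-Glo luminescence after ≥48 hr at 37 °C. Cells: DT40 Tdp1-/- stably carrying human TDP1, 400 per well, compound exposure in the absence of CPT (DMSO vehicle).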
% is set by controls: 0 for no effect and ±100 for the full control effect; potency is the fitted concentration of half-maximal effect; tags give direction and shape of the fitted curve.

| Compound | Potency | activity change, negative = growth inhibition |
| --- | --- | --- |
| COc1ccccc1NC(=O)c1oc2ccccc2c1C | inconclusive: 29.1 µM [inhibitor, single point] | – |
| COC(=O)c1ccccc1NC(=O)NCc1c(C)nn(C)c1C | inconclusive: 32.6 µM [inhibitor, single point] | – |
| Cc1cccc(NC2=Nc3ccccc3N3C2=Nc2c(c(C)nn2-c2ccccc2)C3c2ccc(O)c(O)c2)c1 (stereo not drawn) | inconclusive: 29.1 µM [inhibitor, single point] | – |
| Cc1oc(-c2cccc(Cl)c2)nc1CN1CCC(C(=O)N2CCN(c3ccccn3)CC2)CC1 | active: 18.4 µM | – |
| O=C([O-])c1cc(-c2ccccc2)cc(-c2ccccc2)[n+]1CCc1ccc(Cl)cc1 | active: 6.51 µM | – |
| CCCCCCSc1nnc(-c2cnn(-c3ccccc3)c2-n2cccc2)n1C | active: 20.6 µM | – |
| O=C(NCc1cccs1)c1nn(-c2ccccc2Cl)nc1CO | inconclusive: 16.4 µM [inhibitor, single point] | – |
| CC1CCc2sc(NC(=S)NC(=O)c3ccccc3)c(C#N)c2C1 (stereo not drawn) | inconclusive: 29.1 µM [inhibitor, single point] | – |
| COC(=O)c1ccc(CSc2nc(C)nc3c2c(=O)n(C)c(=O)n3C)o1 | inconclusive: 20.6 µM [inhibitor, single point] | – |
| CCOC(=O)c1ccc(NC2c3ncccc3C(=O)N2Cc2ccc(F)cc2)cc1 (stereo not drawn) | inconclusive: 11.2 µM [inhibitor, single point] | – |
| CC1=C(C(=O)Nc2ccccc2)C(c2ccccc2C)n2nc(SCC(=O)c3ccc(C)cc3)nc2N1 (stereo not drawn) | active: 18.4 µM | – |
| COc1ccc(OCc2nnc(SCC(=O)Nc3ccccc3C#N)o2)cc1 | inactive | – |
| O=C(c1cnn2c1NC(c1ccc(Br)cc1)CC2C(F)(F)F)N1CCN(C23CC4CC(CC(C4)C2)C3)CC1 (stereo not drawn) | inconclusive: 23.1 µM [inhibitor, single point] | – |
| O=C(NCc1cccnc1)c1cccc2c1C(=O)N(C1CCCCC1)C2 | inactive | – |
| CCOc1ccc(CN2CCN(CC3CC3)CC2CCO)cc1 (stereo not drawn) | – | inconclusive: -32.1% [inhibitor] |
| COc1ccc(/C=N/n2cnc3c([nH]c4ccc(Br)cc43)c2=O)cc1CN1CCOCC1 | inconclusive: 23.1 µM [inhibitor, partial curve] | – |
| CCOC(=O)c1ccccc1NC(=O)N1CCN(Cc2cc(=O)n3nc(-c4ccccc4)sc3n2)CC1 | inactive | – |
| CC(C)CC1NC(=O)N(CC(=O)Nc2ccccc2-c2ccccc2)C1=O (stereo not drawn) | inconclusive: 20.6 µM [inhibitor, single point] | – |
| Cc1ccc(SCc2cc(=O)[nH]c(Nc3nc(C)c4ccccc4n3)n2)cc1 | inconclusive: 29.1 µM [inhibitor, single point] | – |
| O=[N+]([O-])c1cccc(/C=C/c2nc(C=Nc3ccc4ccccc4c3)c(O)o2)c1 | inactive | – |
| O=C(CSc1nc(-c2ccccc2)c(-c2ccccc2)[nH]1)N1CCN(S(=O)(=O)c2ccccc2)CC1 | active: 18.4 µM | – |
| COC(=O)c1c(-c2cccs2)csc1NC(=O)c1ccc(Br)cc1 | inconclusive: 23.1 µM [inhibitor, single point] | – |
| COC(=O)c1c(-c2cccs2)csc1NC(=O)c1cccc(Cl)c1 | inactive | – |
| CSc1ccccc1C(=O)Nc1cc([N+](=O)[O-])ccc1C | inactive | – |
| O=C(NCCOc1ccccc1)c1cccc(S(=O)(=O)NCc2ccccc2)c1 | inconclusive: 20.6 µM [inhibitor, single point] | – |

| Compound | Potency | activity change, negative = growth inhibition |
| --- | --- | --- |
| COc1ccc(CC(=O)NO)cc1 | inconclusive: 25.1 µM [inhibitor, single point] | – |
| COc1cccc2cc(C(C)N(CCCN3CCOCC3)C(=O)Nc3ccc(Cl)cc3)oc12 (stereo not drawn) | active: 23.1 µM | – |
| COc1ccc(NC(=S)NC2CCCCC2)c(OC)c1 | – | inconclusive: -34.5% [inhibitor] |
| CCOC(=O)CSc1nc2ccsc2c(=O)n1C1CCN(C(=O)OCC)CC1 | inconclusive: 20.6 µM [inhibitor, partial curve] | – |
| Cc1ccc(N2C(=O)c3n[nH]c(C)c3C2c2cccnc2)cc1 (stereo not drawn) | inactive | – |
| CCOc1ccc(-c2cc(CCCC(=O)NCCc3ccc(Cl)cc3)no2)cc1 | inactive | – |
| c1ccc(Cn2nnc3c(N4CCC5(CC4)OCCO5)ncnc32)cc1 | inconclusive: 9.2 µM [inhibitor, partial curve, poor fit] | – |
| CC(C)C(=O)Nc1cccc(COc2cccc(CN(Cc3ccccc3)C(=O)OC(C)(C)C)c2)c1 | inconclusive: 29.1 µM [inhibitor, single point] | – |
| CNC(=O)C1CN(C(=O)c2nn(Cc3ccccc3)c(=O)c3ccccc23)c2ccccc2O1 (stereo not drawn) | inconclusive: 23.1 µM [inhibitor, single point] | – |
| O=C(NNCc1ccc(O)cc1)c1ccccc1Cl | inactive | – |
| C=CCN(C(=O)c1csnn1)C(C(=O)NCc1ccc(F)cc1)c1cccs1 (stereo not drawn) | inconclusive: 29.1 µM [inhibitor, single point] | – |
| CCN(c1cccc(C)c1)S(=O)(=O)c1ccc(-n2cccn2)cc1 | inconclusive: 9.2 µM [inhibitor, partial curve] and inconclusive: 23.1 µM [inhibitor, single point] | – |
| Cc1ccc(S(=O)(=O)N2CCC(C(=O)Nc3ccc(S(=O)(=O)N4CCCC4)cc3)CC2)cc1 | active: 14.6 µM | – |
| Cc1nc(Nc2ccncc2)c2oc3ccccc3c2n1 | active: 11.6 µM | – |
| Cc1ccc(-c2ccnc3c(Br)c(C)nn23)cc1 | inconclusive: 32.6 µM [inhibitor, single point] | – |
| O=C(C1Cc2ccccc2CN1S(=O)(=O)c1ccc(F)cc1)N1CCCCCC1 (stereo not drawn) | inconclusive: 29.1 µM [inhibitor, single point] | – |
| Cc1ccc(-c2cc(C(=O)NCc3cnn(C)c3C)c3ccccc3n2)cc1C | active: 18.4 µM | – |
| O=C(N/N=C/c1ccsc1)c1cc(-c2ccncc2)nc2ccccc12 | active: 3.26 µM | – |
| O=C1C2C(c3ccccc3)C=CC(c3ccccc3)C2C(=O)N1C1CCCCC1 (stereo not drawn) | inconclusive: 29.1 µM [inhibitor, single point] | – |
| C/C=C/C(=O)Nc1cccc(C2=NOC3(C2)C[C@@H](C(N)=O)N(C(=O)C(c2ccccc2)c2ccccc2)C3)c1 (stereo partly drawn) | inconclusive: 25.9 µM [inhibitor, single point] | – |
| Cn1cccc1C(=O)c1ccc(Cl)cc1Cl | inactive | – |
| c1cc(-c2ccc(N3CCOCC3)cc2)n2cnnc2c1 | inconclusive: 6.51 µM [inhibitor, single point] | – |
| CNc1ccc(SC#N)cc1 | inconclusive: 23.1 µM [inhibitor, single point] | – |
| COC(=O)c1cc(Br)c(=O)n(-c2cc(C)on2)c1 | inactive | – |
| CCN(c1ccccc1)S(=O)(=O)c1cc(Br)cc2c1N(C(=O)C1CC1)CC2 | active: 18.4 µM | – |

| Compound | Potency | activity change, negative = growth inhibition |
| --- | --- | --- |
| COCCNC(=S)N/N=C(\C)c1cc2ccccc2o1 | active: 18.4 µM | – |
| COc1ccc(S(=O)(=O)N2CCN(C(=O)c3cccc(S(=O)(=O)N4CCCC4)c3)CC2)cc1 | – | inconclusive: -27.1% [inhibitor] |
| CCOc1ccc(S(=O)(=O)NC2CCCC2)cc1C | inactive | – |
| Cc1cccc(-c2c3c(=O)n(C)c(=O)n(C)c3c3c(C)nc4ccccc4n23)c1 | active: 6.51 µM | – |
| Cc1ccccc1NC(=O)N1CCN(S(=O)(=O)c2ccccc2)CC1 | inconclusive: 29.1 µM [inhibitor, single point] | – |
| CC(/C=C/c1ccco1)=N\NC(=O)CNc1ccc2ccccc2c1 | inconclusive: 18.4 µM [inhibitor, partial curve, poor fit] | – |
| CCOC(=O)c1sc(NC(=O)C2CC(=O)N(c3ccc4c(c3)OCCO4)C2)nc1C (stereo not drawn) | inconclusive: 29.1 µM [inhibitor, single point] | – |
| Cc1cc(C)n(-c2nc(N(C)C)nc(N3CCOCC3)n2)n1 | inactive | – |
| CC(C)n1c(NCc2nc3ccccc3n2C)nc2ccccc21 | inactive | – |
| COc1ccc(NC(=O)CCN2CCC(C)CC2)cc1 | inactive | – |
| Cc1csc(CNC(=O)c2cc(COc3c(C)cccc3C)on2)n1 | inactive | – |
| N#Cc1c(-c2cccs2)cc(-c2cccnc2)nc1N | inconclusive: 16.4 µM [inhibitor, single point] | – |
| CN(C)CCNC(=O)c1ccc(Sc2ccc(Br)cc2)c([N+](=O)[O-])c1 | active: 23.1 µM | – |
| Cc1ccccc1NC(=O)CSc1nc2ccccc2c(=O)n1CC1CCCO1 (stereo not drawn) | inconclusive: 18.4 µM [inhibitor, partial curve] | – |
| COc1ccc(-c2nc(C#N)c(N3CCCCC3)o2)cc1 | inactive | – |
| Cc1ccc(C)c(C(=O)CSc2n[nH]c(-c3ccncc3)n2)c1 | inconclusive: 29.1 µM [inhibitor, single point] | – |
| CC(=O)N1CCc2cc(S(=O)(=O)Nc3cccc(C(F)(F)F)c3)ccc21 | active: 20.6 µM | – |
| COc1cccc(-n2c(-c3ccccc3)c[nH]c2=S)c1 | inconclusive: 25.9 µM [inhibitor, single point] | – |
| Cc1nc(N2CCC(C)CC2)c2c(C)c(C(=O)Nc3cc(F)ccc3C)sc2n1 | inconclusive: 29.1 µM [inhibitor, single point] | – |
| CCOC(=O)C1(CCOC)CCN(Cc2cccc(OCc3ccccc3)c2)CC1 | active: 16.4 µM | – |
| c1csc(Cc2nn3c(-c4ccncc4)nnc3s2)c1 | inactive | – |
| CC(C)(C)c1cc(C2COC(=O)COCCOCC(=O)OCCOCCO2)cc(C(C)(C)C)c1O (stereo not drawn) | inconclusive: 29.1 µM [inhibitor, single point] | – |
| Cc1ccc(CN2C(=O)NC(Cc3c[nH]c4ccccc34)C2=O)cc1 (stereo not drawn) | inactive | – |
